Assay results taken from publication PMC12040169 (PLOS Biology, 2025).
The list shows a part of the results.

system: T1, C. trachomatis L2/434/Bu expressing GFP (CTL2-GFP); parameters: species or system HeLa; C. trachomatis total inclusion area by high-content imaging, normalised to DMSO; settings: total inclusion area; 28.5 h, 10 µM; inhibitor
T1 construct: L2/434/Bu GFP intracellular growth in HeLa cells
In short: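 Bulk GFP and resorufin signals were read first. Wells were then fixed, stained with Hoechst and imaged to detect GFP inclusions and host nuclei. MICs followed the previously described calculation.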

Row | SMILES | % of control remaining
1 | Cc1cc(N2C[C@H](CO)OC2=O)ccc1C#N [CBK017978] | 68.845
2 | N#Cc1ccc(-n2nc(-c3ccccc3)c3ccccc3c2=O)c([N+](=O)[O-])c1 [CBK132567] | 96.7311
3 | C=CCN(Cc1nc(-c2ccccc2)no1)C(=O)Nc1ccc(C)cc1 [CBK269859] | 78.4189
4 | O=C(O)CCC(=O)Nc1cccc(C(=O)Nc2ccc(Br)cc2)c1 [CBK269129] | 122.215
5 | CC(C)CSc1nccnc1N1CCCC1 [CBK103683] | 86.2365
6 | CC(NC(=O)N1CCC2(CC1)NC(=O)Cc1ccccc12)c1cccc2ccccc12 (centres unmarked) [CBK047280] | 103.785
7 | COc1ccc(C2(CN3CCC(NC(=O)C(C)C)CC3)CC2)cc1 [CBK285374] | 107.359
8 | O=C(Nc1cccc(-c2cn3cccnc3n2)c1)c1cccc([N+](=O)[O-])c1 [CBK268963] | 118.264
9 | CCCc1cnc(N2CCN(S(=O)(=O)c3ccc(NC(C)=O)cc3Cl)CC2)nc1 [CBK086208] | 87.9358
10 | CSc1ccccc1CNC(=O)c1cc(Br)cnc1N(C)C(C)=O [CBK076478] | 85.7541
11 | CC1(C)CCCCC1CC(=O)NS(=O)(=O)c1cccc(-c2nnco2)c1 (centres unmarked) [CBK306477] | 73.3124
12 | CCOP(=O)(O)c1c([N+](=O)[O-])cc(C(F)(F)F)cc1[N+](=O)[O-] [CBK261106G] | 98.9904
13 | COc1ccc(CCNS(=O)(=O)c2cccc([N+](=O)[O-])c2)cc1OC [CBK263618] | 94.0165
14 | Cn1c(CCNC(=O)NC2CCCCC2)nc2cc([N+](=O)[O-])ccc21 [CBK268453] | 114.815
15 | Cc1nn(C)c(=O)c2c(C)noc12 [CBK001462] | 111.351
16 | Clc1ccccc1-c1nccnc1NCCc1ccncc1 [CBK038055] | 163.427
17 | CC(C)(C)C(O)CNc1ncnc2ccc(S(C)(=O)=O)cc12 (centres unmarked) [CBK306494] | 36.0297
18 | Cc1ccc(Cl)cc1N(Cc1ccc(C(=O)N2CCC(C)CC2)cc1)S(=O)(=O)c1ccccc1 [CBK033646] | 106.069
19 | Cn1c(Cc2cccc3ccccc23)nnc1SCC(=O)Nc1ccccc1F [CBK265856] | 67.0376
20 | Cc1ccc(OCC(=O)Nc2ncc(C(F)(F)F)cc2Cl)c(Br)c1 [CBK266426] | 121.609
21 | OCCN(CCO)Cc1c(Cl)cccc1Cl [CBK261887] | 95.9948
22 | COc1ccc2sc(C)[n+](CCC(=O)O)c2c1 [CBK260899B] | 90.7004
23 | CCc1cc(=O)[nH]c(-c2ccc(N3CCOCC3C)nc2)n1 (centres unmarked) [CBK305532] | 81.5408
24 | CC(C)OC(=O)COc1ccc2c(=O)c(Oc3ccccc3Br)coc2c1 [CBK264226] | 113.792
25 | Cc1ccc(-c2[nH]ncc2C(=O)c2ccccc2C)c(O)c1 [CBK287929] | 118.265
26 | COc1ccc(-c2n[nH]c(=S)n2CCC(=O)NCc2ccc(CN3CCCCC3)cc2)cc1 [CBK297918] | 91.1288
27 | CC(C)c1ccc(/C=C/C(=O)NCc2cccs2)cc1 [CBK149587] | 102.523

Row | SMILES | % of control remaining
28 | CN(c1cccc(C#N)c1)C1CCN(c2nccn(C)c2=O)C1 (centres unmarked) [CBK304718] | 33.5345
29 | C[Si]1(C)O[Si](C)(C)O[Si](C)(CC[Si](C)(C)c2ccccc2)O[Si](C)(C)O1 [CBK260998] | 98.9461
30 | COc1ccc(Nc2nc(-c3ccc(Cl)cc3)cn3ccnc23)cn1 [CBK066254] | 94.026
31 | CCOC(=O)C1CCN(c2cccc(F)c2C#N)CC1 [CBK304558] | 45.8904
32 | OC(COCc1ccc2c(c1)OCO2)CN1CCN(Cc2ccccc2)CC1 (centres unmarked) [CBK278249C] | 97.284
33 | O=C(NC1CC2CCC(C1)N2Cc1ccccc1)c1ccc(Cl)cc1 (centres unmarked) [CBK120192] | 106.603
34 | c1csc(CNCCCN2CCOCC2)c1 [CBK278305C] | 128.164
35 | Cn1cnnc1SCc1nc(N)nc(Nc2ccccc2)n1 [CBK018022] | 93.171
36 | O=C(CCCOc1ccccc1)Nc1ccc(N2CCNCC2)nc1 [CBK028270T] | 76.121
37 | COc1cccc([C@H]2CN(C(=O)c3ccccc3)[C@@H]3CCN(Cc4ccccc4F)C[C@H]23)c1 [CBK285608] | 86.7457
38 | COc1ccc(C2=NNC(=O)c3cc4sccc4n3C2)cc1 [CBK284205] | 67.3666
39 | Cc1sc2ncn(CC(=O)NC3CCOc4ccccc43)c(=O)c2c1C (centres unmarked) [CBK304562] | 40.4663
40 | O=c1cc(CN2CCCc3ccccc32)[nH]c(=O)[nH]1 [CBK138331] | 64.4779
41 | CC(C)Nc1nccnc1OC1CCNC1 (centres unmarked) [CBK115279] | 96.9696
42 | CN1[C@@H](CCC(=O)Nc2ccccc2)CNC(=O)[C@@H]2[C@H]1CCN2C1CCOCC1 [CBK289029] | 101.373
43 | CN(C)CC1CN(C(=O)c2ccccc2F)Cc2ccccc2O1 (centres unmarked) [CBK285188] | 86.2921
44 | CCCC(=O)Nc1ccc(-c2csc(CCN3CCOC3=O)n2)cc1 [CBK305687] | 110.793
45 | O=C(C1CCCO1)N1CCC(c2onc3c2CCCCC3)CC1 (centres unmarked) [CBK284487] | 67.4358
46 | O=S1(=O)CCN(Cc2cnn(-c3cncnc3)n2)CC1 [CBK112878] | 112.197
47 | C=CCn1c(COc2cccc(Cl)c2)nnc1SCC(=O)O [CBK269389] | 90.9817
48 | C1=C(CCNCCc2ccccc2)c2ccccc2C12CCCC2 [CBK024723] | 3.156
49 | CCc1nc(-c2ccc(N(C)C)nc2)nn1C [CBK307381] | 36.0012
50 | Clc1ccc(Nc2cncc(-c3cccs3)n2)cc1 [CBK065805] | 95.3077
51 | CCOc1ccc(C(=O)Nc2ccc(-c3nc4ccccc4s3)cc2C)cc1[N+](=O)[O-] [CBK269005] | 89.9708
52 | Cc1cnc2c(N3CCCC3)nc(Cl)cn12 [CBK092250] | 87.6579
53 | CCNc1nc2ccccn2c(=O)c1C=C1SC(=S)N(CCCC(=O)O)C1=O [CBK296757] | 104.864
